For the data set, the system named is ATP. Put plainly: switch fluorescence ratio, 500 uM ATP over buffer (Cy3 cluster intensity, sum of 5 cycles each) (fold (ratio)); higher = stronger signal-on switching upon ATP binding; sequences stand for … in TCGTCGGCAGCGTCAGATGTGTATAAGAGACAGTTTTTTTTTTTTTTTTTTTTTTTTT…TC. The note with it: aptamer strand: ATP DNA aptamer (quencher-CACCTGGGGGAGTATTGCGGAGGAAGG + anchor), 100 nM annealed; ATP concentration: 500 uM; one replicate. An outline of the steps: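 Between each of five buffer/ATP cycles, the flow-cell was stripped with NaOH and re-annealed. Each cycle imaged Cy3-labelled switching-strand clusters, annealed to 100 nM quencher-labelled ATP aptamer on a modified Illumina MiSeq flow-cell, first in selection buffer and then after 15 min with 500 uM ATP at 22 °C. The fluorescence ratio is summed target-cycle over summed buffer-cycle Cy3 intensity per cluster, averaged per switch-domain sequence, with clusters outside 100-1000 RFU excluded.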

Values marked as one replicate rest on one cluster of the flow cell; about a third of the high ones do not repeat.
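Also: ATP exposure 15 min at 22 °C before imaging.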

With GGGGCCCAAG, the switch fluorescence ratio came to 0.972.

GAGGAGCGGG: the switch fluorescence ratio was found to be 1.05.

On to GGGCCATCCT, for which the switch fluorescence ratio was found to be 1.02.

For CCGTATAGGA, the switch fluorescence ratio worked out at 1.01.

For the sequence CTATGGTTGC, the switch fluorescence ratio was 0.93.

On to CTACCATTGT, for which the switch fluorescence ratio was 1.02.

On to CGGCGGGCCC, for which the switch fluorescence ratio was determined as 0.987.

With GACATTGAGG, the switch fluorescence ratio was 0.99.

With GATACCCGCG, the switch fluorescence ratio was found to be 1.06.

With GGAGTCTGGA, the switch fluorescence ratio was found to be 0.976.

TTAATCTATT: the switch fluorescence ratio turned out to be 1.05.

As for TCCGTCAGGG, the switch fluorescence ratio was 1.01.

For TTTACGGCCT, the switch fluorescence ratio was 1.04.

As for ATGATTGGTG, the switch fluorescence ratio is 1.03.

GGAACTATGG: the switch fluorescence ratio turned out to be 0.976.

Turning to AAGGTAGCCC, the switch fluorescence ratio came to 1.04.

Regarding CAATTAGGTT, the switch fluorescence ratio is 0.984.

In the case of CTTCGTTTTT, the switch fluorescence ratio is 1.04.

With ACAAATTGCT, the switch fluorescence ratio worked out at 1.02.

For the sequence TCTTAATAAG, the switch fluorescence ratio is 1.

As for CGGTCCAGAG, the switch fluorescence ratio is 1.03.

Turning to TCTTTTAGAA, the switch fluorescence ratio was determined as 1.03.

For the sequence ACCGGGCTGT, the switch fluorescence ratio was 0.924.

As for TATTTATGGC, the switch fluorescence ratio came to 0.981.

As to TGTTACTAGG, the switch fluorescence ratio is 1.02.

With CGAGAAGATA, the switch fluorescence ratio was found to be 1.

AGGGGTTCTT: the switch fluorescence ratio came to 0.943.

Consider GATCAGCTTA, for which the switch fluorescence ratio was determined as 0.985.

On to ACTCAGTGAA, for which the switch fluorescence ratio came out at 1.12.

With GACTGTGGCC, the switch fluorescence ratio was determined as 1.05.

With TTGAAGCGG, the switch fluorescence ratio worked out at 1.02.

ACGTGATGTA: the switch fluorescence ratio came to 1.02.

TTGCCGTACA: the switch fluorescence ratio came out at 0.992.

Regarding AAAATTCCG, the switch fluorescence ratio was found to be 1.05.

Consider GGACTTGTCA, for which the switch fluorescence ratio was determined as 0.992.

Regarding GGTCAAAAAT, the switch fluorescence ratio was 0.999.

Consider TTACCGGTGT, for which the switch fluorescence ratio amounted to 1.03.

TAATCTTGCA: the switch fluorescence ratio was 1.04.

Consider GGTAGGTAAT, for which the switch fluorescence ratio worked out at 1.02.

Take TTTTAGATTA: the switch fluorescence ratio was 0.989.

For CACGGTATAT, the switch fluorescence ratio came to 1.24.

With CCGGCTTTTC, the switch fluorescence ratio is 3.39.

CCCGAATTTT: the switch fluorescence ratio was 1.

On to ACATCTATAG, for which the switch fluorescence ratio came out at 0.953.

On to AAGGCGACTT, for which the switch fluorescence ratio worked out at 1.07.

On to ACTGAACGAG, for which the switch fluorescence ratio was 1.21.

In the case of TGATGATAAG, the switch fluorescence ratio stood at 1.04.

Take CGTTTCTACG: the switch fluorescence ratio is 0.974.

Turning to ATGGCCTAAT, the switch fluorescence ratio turned out to be 1.07.

On to CTGATCTTGA, for which the switch fluorescence ratio is 0.945.

With CGATAACTAG, the switch fluorescence ratio worked out at 1.01.

Consider GGCAGGTTAT, for which the switch fluorescence ratio is 1.04.

For the sequence TGGATGCAGG, the switch fluorescence ratio is 0.982.

GTTGCCCGCA: the switch fluorescence ratio amounted to 1.04.

For the sequence TGACGGAGAG, the switch fluorescence ratio was 1.07.

Turning to CCGGTATAGC, the switch fluorescence ratio is 1.75.

Take ATGCTAGAGG: the switch fluorescence ratio was 0.994.

For TCGGCGCGTC, the switch fluorescence ratio was determined as 0.974.

In the case of AAATAACGTG, the switch fluorescence ratio was 0.987.

As to CTGGGCTGG, the switch fluorescence ratio came out at 1.03.

Take GTAATCAATT: the switch fluorescence ratio amounted to 0.963.

As for TCATTCACTG, the switch fluorescence ratio is 1.11.

Take AGATATCTAT: the switch fluorescence ratio stood at 0.991.

For CAGCTTGGTT, the switch fluorescence ratio is 1.01.

In the case of TATCGCGTTT, the switch fluorescence ratio was found to be 1.09.

In the case of CCGCTTGTTC, the switch fluorescence ratio came out at 4.14.

As for CTCTTGCTGC, the switch fluorescence ratio came out at 1.32.

Turning to ATTCGTATGC, the switch fluorescence ratio came out at 0.97.

With TCTGTCGCCA, the switch fluorescence ratio was determined as 1.02.

In the case of CCAGCTGATC, the switch fluorescence ratio turned out to be 1.37.

With GGCGTGACGT, the switch fluorescence ratio was found to be 0.97.

As for ATGCAGAATA, the switch fluorescence ratio is 1.01.

For AGTCTCTTGT, the switch fluorescence ratio worked out at 1.02.

Turning to GTAATCGCTT, the switch fluorescence ratio is 0.978.

With TTAACGGATT, the switch fluorescence ratio turned out to be 1.02.

Consider TGGGCTGGAG, for which the switch fluorescence ratio was 1.

In the case of TAGAAGGTGC, the switch fluorescence ratio turned out to be 1.34.

Turning to GATGGGGTAC, the switch fluorescence ratio came out at 1.05.

AGAGAAGGTT: the switch fluorescence ratio worked out at 0.995.

TACCGCGTGA: the switch fluorescence ratio stood at 1.02.

For GGACTGCCAC, the switch fluorescence ratio was found to be 1.26.

Turning to GTCATTCACG, the switch fluorescence ratio was determined as 1.03.

For AGGTGTAGTA, the switch fluorescence ratio worked out at 1.

Turning to CTTATCACAT, the switch fluorescence ratio came out at 1.

Take AGGTGGAGAT: the switch fluorescence ratio was 0.98.

As for GGTGTCAGGA, the switch fluorescence ratio was determined as 1.04.

Consider GTGGGGCTAT, for which the switch fluorescence ratio is 1.03.

Regarding ACGGAACAG, the switch fluorescence ratio came to 1.16.

Take GATGGAGGG: the switch fluorescence ratio came to 0.939.

Regarding CATCAGGGCC, the switch fluorescence ratio worked out at 1.01.

Regarding GAGGTTGTGT, the switch fluorescence ratio amounted to 0.937.

As to TCGGTTCCGA, the switch fluorescence ratio was 1.

With CCGGCGTTAT, the switch fluorescence ratio amounted to 1.79.

Turning to TGCGGCGCCC, the switch fluorescence ratio stood at 1.02.

Consider AAGCCGGGCC, for which the switch fluorescence ratio is 0.986.

With ATGGCACGAG, the switch fluorescence ratio is 0.981.

Turning to GATTGATTCA, the switch fluorescence ratio turned out to be 0.941.

Turning to GAAGGGTCTT, the switch fluorescence ratio came out at 0.974.

On to CTTGCTTTCA, for which the switch fluorescence ratio was 0.98.

Consider CATGAGGGAC, for which the switch fluorescence ratio is 1.19.

Take TGCATGCAAG: the switch fluorescence ratio is 0.987.

Regarding CCTCGTAAAG, the switch fluorescence ratio is 1.88.

In the case of CGTGAGGTTC, the switch fluorescence ratio worked out at 0.961.

As to GATAAATCTG, the switch fluorescence ratio came out at 1.

As for TAACTAGGTG, the switch fluorescence ratio was 1.51.

TTCAGCTGT: the switch fluorescence ratio came to 1.

Turning to TCCGGTCATG, the switch fluorescence ratio was found to be 1.04.

As for TAGAGAGTTT, the switch fluorescence ratio turned out to be 1.08.

For TTCTATGAAC, the switch fluorescence ratio was 1.02.

Turning to GTTACTTTTC, the switch fluorescence ratio came to 0.96.

In the case of CCGAGGACGT, the switch fluorescence ratio is 1.13.

On to GCCGGTAACT, for which the switch fluorescence ratio came to 1.

As for CGATGGTGAC, the switch fluorescence ratio stood at 1.05.

Regarding CCTTTATTAC, the switch fluorescence ratio worked out at 1.51.

With ATCTGGTAAG, the switch fluorescence ratio amounted to 1.

With TTGCTTGGCT, the switch fluorescence ratio turned out to be 1.04.

For the sequence TTTTCAGCCA, the switch fluorescence ratio worked out at 1.05.

Regarding GTTCTCGGGA, the switch fluorescence ratio amounted to 1.01.

For CTTGCCACTT, the switch fluorescence ratio is 0.956.

Take ACTGGTTTCG: the switch fluorescence ratio is 1.01.

The record behind these values is the supplement of paper PMC10126150.
